At least one peptide structure holds a part that was inferred or is arguable (an end, a ring closure or a residue). Some entries repeat one wording, which the source may state once for all of them. Residues, ends and D or L forms follow the SMILES beside them. *: point of attachment. Succinyl(4-O-cholesteryl) = CC(C)CCC[C@@H](C)[C@H]1CC[C@H]2[C@@H]3CC=C4C[C@@H](OC(=O)CCC(=O)*)CC[C@]4(C)[C@H]3CC[C@]12C; X1 = CC(C)CCC[C@@H](C)[C@H]1CC[C@H]2[C@@H]3CC=C4C[C@@H](OC(=O)C*)CC[C@]4(C)[C@H]3CC[C@]12C
What was measured:
HIV-1NL4-3 pseudovirus = assay type: cell-based; settings: for antiviral activity / inhibitory activity (in words): HIV-1NL4-3 and HIV-1JRFL pseudoviruses, FIG. 2, compared with LP-101
Excerpt: (§1) HIV-1JRFL Env expression vectors and backbone plasmas (pSG3 ΔEnv) and TZM-bl cells were described in the following literature: Xue, J., Chong, H., Zhu, Y, Zhang, J., Tong, L., Lu, J., Chen, T., Cong, Z., Wei, Q., He, Y., 2022. Efficient treatment and pre-exposure prophylaxis in rhesus macaques by an HIV fusion-inhibitory lipopeptide. Cell 185, 131-144 e118. The HIV-1JRFL Env expression vector and the backbone plasmas (pSG3 ΔEnv) were co-transfected into HEK293T cells, and the transfected cells were cultured in a cell culture incubator at 37 °C and 5% CO2 for 48 hours, and then the supernatant was collected and filtered to collect the filtrate. The resulting filtrate was a virus solution containing HIV-1JRFL pseudovirus particles (called as HIV-1JRFL virus solution), which was preserved at -80 °C for later use.
The preparation method of the HIV-1NL4-3 virus solution (i.e., the virus solution containing HIV-1NL4-3 pseudovirus particle) was basically the same as that of the HIV-1JRFL virus liquid, except that the HIV-1JRFL Env expression vector was replaced with HIV-1NL4-3 Env expression vector. The HIV-1NL4-3 pseudovirus ("HIV-1NL4-3" in a literature) was described in the following literature: Xue, J., Chong, H., Zhu, Y, Zhang, J., Tong, L., Lu, J., Chen, T., Cong, Z., Wei, Q., He, Y., 2022. Efficient treatment and pre-exposure prophylaxis in rhesus macaques by an HIV fusion-inhibitory lipopeptide. Cell 185, 131-144 e118.
Test virus solution: HIV-1NL4-3 virus solution or HIV-1JRFL virus solution. • 1. A test lipopeptide was dissolved in deionized water and then diluted with DMEM medium (using 3-fold dilution) to obtain a lipopeptide diluent. 9 dilutions were set for each test lipopeptide. • 2. In a 96-well plate, the lipopeptide diluent (50 µL/well) was added to drug wells and the DMEM medium (50 µL/well) was added to control wells. Each well was set with three duplicate wells. • 3. After step 2 was finished, a test virus solution (50 µL/well, a virus content of 100 TCID50) was added to the 96-well plate and incubated at room temperature for 30 minutes. • 4. After step 3 was finished, a TZM-b1 cell suspension (100 µL/well) was added to the 96-well plate and cultured for 48 hours in a cell culture incubator at 37 °C and 5% CO2. Preparation method of the TZM-b1 cell suspension: TZM-b1 cells were re-suspended in a DMEM medium and DEAE-dextran was added thereto such that the cell concentration was 10×10^4 cells/mL and the DEAE-dextran concentration was 15 µg/mL. • 5. After step 4 was finished, the supernatant was discarded, and a cell lysate (30 µL/well) was added. […] Relative luminescence units (RLU) were measured by a microplate luminometer, an inhibition rate curve was made, and the half-maximal inhibition concentration (IC50) of the drug was calculated. […]

HIV-1JRFL pseudovirus = assay type: cell-based; settings: ratio of IC50 to LP-101
Excerpt: as §1
Test virus solution: HIV-1NL4-3 virus solution or HIV-1JRFL virus solution. • 1. A test lipopeptide was dissolved in deionized water and then diluted with DMEM medium (using 3-fold dilution) to obtain a lipopeptide diluent. 9 dilutions were set for each test lipopeptide. • 2. […] Relative luminescence units (RLU) were measured by a microplate luminometer, an inhibition rate curve was made, and the half-maximal inhibition concentration (IC50) of the drug was calculated. […]

HIV-2ROD virus = test: Inhibition of HIV-2ROD virus (replicative); assay type: cell-based
HIV-2ST virus = test: Inhibition of HIV-2ST virus (replicative); assay type: cell-based
SIVmac239 virus = test: Inhibition of SIVmac239 virus (pseudotype); assay type: cell-based, SIV
SIVPBJ virus = test: Inhibition of SIVPBJ virus (pseudotype); assay type: cell-based, SIV
[1] = Circular dichroism of the lipopeptide alone (α-helix content, thermal stability); assay type: physicochemical; settings: 10 µM
N42 polypeptide = biological target: T1, N42 polypeptide (Human immunodeficiency virus type 1 group M subtype B, UniProt P04578); test: Circular dichroism of the complex of lipopeptide and N42 polypeptide; assay type: binding, HIV; settings: complex with N42 polypeptide, each 10 µM
T1 construct: The polypeptide N42 is: Ac-[…]-NH2; made in house; host or cells: chemical peptide synthesis (no expression host)

[2] = PBS pH 7.2, 20-98 °C at 2 °C/min

T1 sequence (P04578 528-569): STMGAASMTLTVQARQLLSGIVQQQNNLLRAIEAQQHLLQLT

SMILES: CC[C@H](C)[C@H](NC(=O)[C@H](CCCCN)NC(=O)[C@H](CCC(N)=O)NC(=O)[C@H](CCC(=O)O)NC(=O)[C@H](Cc1c[nH]c2ccccc12)NC(C)=O)C(=O)N[C@@H](CCC(=O)O)C(=O)N[C@@H](CCC(=O)O)C(=O)N[C@@H](CC(C)C)C(=O)N[C@@H](CCC(=O)O)C(=O)N[C@@H](CCCCN)C(=O)N[C@@H](CCCCN)C(=O)N[C@H](C(=O)N[C@@H](CCC(=O)O)C(=O)N[C@@H](CCC(=O)O)C(=O)N[C@@H](CC(C)C)C(=O)N[C@@H](CC(C)C)C(=O)N[C@@H](CCCCN)C(=O)N[C@@H](CCCCN)C(=O)N[C@@H](C)C(=O)N[C@@H](CCC(=O)O)C(=O)N[C@@H](CCC(=O)O)C(=O)N[C@@H](CCC(N)=O)C(=O)N[C@@H](CCC(N)=O)C(=O)N[C@@H](CCCCN)C(=O)N[C@@H](CCCCN)C(=O)N[C@@H](CC(N)=O)C(=O)N[C@@H](CCC(=O)O)C(=O)N[C@@H](CCC(=O)O)C(=O)N[C@@H](CCC(=O)O)C(=O)N[C@@H](CC(C)C)C(=O)N[C@@H](CCCCN)C(=O)N[C@@H](CCCCN)C(=O)N[C@@H](CC(C)C)C(=O)N[C@@H](CCC(=O)O)C(=O)N[C@@H](CCCCNC(=O)CCC(=O)O[C@H]1CC[C@@]2(C)C(=CC[C@H]3[C@@H]4CC[C@H]([C@H](C)CCCC(C)C)[C@@]4(C)CC[C@@H]32)C1)C(N)=O)[C@@H](C)CC [LP-102] (Ac-WEQKIEELEKKIEELLKKAEEQQKKNEEELKKLEK(Succinyl(4-O-cholesteryl))-NH2)
- antiviral activity / inhibitory activity (in words) (HIV-1NL4-3 pseudovirus): significantly reduced antiviral activity

SMILES: CC[C@H](C)[C@H](NC(=O)[C@H](CCC(=O)O)NC(=O)[C@H](CCCNC(=N)N)NC(=O)[C@H](CC(=O)O)NC(=O)[C@H](Cc1c[nH]c2ccccc12)NC(C)=O)C(=O)N[C@@H](CCC(=O)O)C(=O)N[C@@H](CCC(=O)O)C(=O)N[C@@H](CC(C)C)C(=O)N[C@@H](CCC(=O)O)C(=O)N[C@@H](CCCCN)C(=O)N[C@@H](CCCCN)C(=O)N[C@H](C(=O)N[C@@H](CCC(=O)O)C(=O)N[C@@H](CCC(=O)O)C(=O)N[C@@H](CC(C)C)C(=O)N[C@@H](CC(C)C)C(=O)N[C@@H](CCCCN)C(=O)N[C@@H](CCCCN)C(=O)N[C@@H](C)C(=O)N[C@@H](CCC(=O)O)C(=O)N[C@@H](CCC(=O)O)C(=O)N[C@@H](CCC(N)=O)C(=O)N[C@@H](CCC(N)=O)C(=O)N[C@@H](CCCCN)C(=O)N[C@@H](CCCCN)C(=O)N[C@@H](CC(N)=O)C(=O)N[C@@H](CCC(=O)O)C(=O)N[C@@H](CCC(=O)O)C(=O)N[C@@H](CCC(=O)O)C(=O)N[C@@H](CC(C)C)C(=O)N[C@@H](CCCCN)C(=O)N[C@@H](CCCCN)C(=O)N[C@@H](CC(C)C)C(=O)N[C@@H](CCC(=O)O)C(=O)N[C@@H](CCCCNC(=O)CCC(=O)O[C@H]1CC[C@@]2(C)C(=CC[C@H]3[C@@H]4CC[C@H]([C@H](C)CCCC(C)C)[C@@]4(C)CC[C@@H]32)C1)C(N)=O)[C@@H](C)CC [LP-103] (Ac-WDREIEELEKKIEELLKKAEEQQKKNEEELKKLEK(Succinyl(4-O-cholesteryl))-NH2)
- antiviral activity / inhibitory activity (in words) (HIV-1NL4-3 pseudovirus): significantly reduced antiviral activity

SMILES: CC[C@H](C)[C@H](NC(=O)[C@H](CCCCN)NC(=O)[C@H](CCCCN)NC(=O)[C@H](CCC(=O)O)NC(=O)[C@H](Cc1c[nH]c2ccccc12)NC(=O)[C@H](CCC(=O)O)NC(=O)[C@H](CCC(=O)O)NC(=O)[C@H](Cc1c[nH]c2ccccc12)NC(C)=O)C(=O)N[C@@H](CCC(=O)O)C(=O)N[C@@H](CCC(=O)O)C(=O)N[C@@H](CC(C)C)C(=O)N[C@@H](CCC(=O)O)C(=O)N[C@@H](CCCCN)C(=O)N[C@@H](CCCCN)C(=O)N[C@H](C(=O)N[C@@H](CCC(=O)O)C(=O)N[C@@H](CCC(=O)O)C(=O)N[C@@H](CC(C)C)C(=O)N[C@@H](CC(C)C)C(=O)N[C@@H](CCCCN)C(=O)N[C@@H](CCCCN)C(=O)N[C@@H](C)C(=O)N[C@@H](CCC(=O)O)C(=O)N[C@@H](CCC(=O)O)C(=O)N[C@@H](CCC(N)=O)C(=O)N[C@@H](CCC(N)=O)C(=O)N[C@@H](CCCCN)C(=O)N[C@@H](CCCCN)C(=O)N[C@@H](CC(N)=O)C(=O)N[C@@H](CCC(=O)O)C(=O)N[C@@H](CCC(=O)O)C(=O)N[C@@H](CCC(=O)O)C(=O)N[C@@H](CC(C)C)C(=O)N[C@@H](CCCCN)C(=O)N[C@@H](CCCCN)C(=O)N[C@@H](CC(C)C)C(=O)N[C@@H](CCC(=O)O)C(=O)N[C@@H](CCCCNC(=O)CCC(=O)O[C@H]1CC[C@@]2(C)C(=CC[C@H]3[C@@H]4CC[C@H]([C@H](C)CCCC(C)C)[C@@]4(C)CC[C@@H]32)C1)C(N)=O)[C@@H](C)CC [LP-104] (Ac-WEEWEKKIEELEKKIEELLKKAEEQQKKNEEELKKLEK(Succinyl(4-O-cholesteryl))-NH2)
- antiviral activity / inhibitory activity (in words) (HIV-1NL4-3 pseudovirus): significantly reduced antiviral activity
- reduced in the activity as compared to lipopeptide LP-101 (HIV-1NL4-3 pseudovirus; ratio of IC50 to LP-101): about 32 fold
- reduced in the activity as compared to lipopeptide LP-101 (HIV-1JRFL pseudovirus): ~27 fold

SMILES: CC[C@H](C)[C@H](NC(=O)[C@H](CCC(=O)O)NC(C)=O)C(=O)N[C@@H](CCC(=O)O)C(=O)N[C@@H](CCC(=O)O)C(=O)N[C@@H](CC(C)C)C(=O)N[C@@H](CCC(=O)O)C(=O)N[C@@H](CCCCN)C(=O)N[C@@H](CCCCN)C(=O)N[C@H](C(=O)N[C@@H](CCC(=O)O)C(=O)N[C@@H](CCC(=O)O)C(=O)N[C@@H](CC(C)C)C(=O)N[C@@H](CC(C)C)C(=O)N[C@@H](CCCCN)C(=O)N[C@@H](CCCCN)C(=O)N[C@@H](C)C(=O)N[C@@H](CCC(=O)O)C(=O)N[C@@H](CCC(=O)O)C(=O)N[C@@H](CCC(N)=O)C(=O)N[C@@H](CCC(N)=O)C(=O)N[C@@H](CCCCN)C(=O)N[C@@H](CCCCN)C(=O)N[C@@H](CC(N)=O)C(=O)N[C@@H](CCC(=O)O)C(=O)N[C@@H](CCC(=O)O)C(=O)N[C@@H](CCC(=O)O)C(=O)N[C@@H](CC(C)C)C(=O)N[C@@H](CCCCN)C(=O)N[C@@H](CCCCN)C(=O)N[C@@H](CC(C)C)C(=O)N[C@@H](CCC(=O)O)C(=O)N[C@@H](CCCCN)C(=O)N[C@@H](CSCC(=O)O[C@H]1CC[C@@]2(C)C(=CC[C@H]3[C@@H]4CC[C@H]([C@H](C)CCCC(C)C)[C@@]4(C)CC[C@@H]32)C1)C(N)=O)[C@@H](C)CC [LP-108] (Ac-EIEELEKKIEELLKKAEEQQKKNEEELKKLEKC(X1)-NH2)
- inhibitory activities compared to lipopeptide LP-98 (in words) (HIV-2ROD virus): comparable
- inhibitory activities compared to lipopeptide LP-98 (in words) (HIV-2ST virus): comparable
- inhibitory activities compared to lipopeptide LP-98 (in words) (SIVmac239 virus): comparable
- inhibitory activities increased as compared with lipopeptide LP-98 (SIVPBJ virus): 8 folds
- Tm values [1, 2]: 64 °C
- α-helix contents ([1]; PBS pH 7.2, [θ]222): 49%
- α-helix contents of the complexes (N42 polypeptide; PBS pH 7.2): 59%
- Tm values of the complexes (N42 polypeptide; [2]): 89 °C

Reference: patent EP4617282A1, “MEMBRANE FUSION INHIBITOR FOR […] VIRUS AND DRUG-RESISTANT STRAIN THEREOF, AND PHARMACEUTICAL USE THEREOF” (Institute Of Pathogen Biology, Chinese Academy Of Medical …, priority 2022, dated 2024)
